# Assay results taken from PubChem BioAssay AID651820 (National Center for Advancing Translational Sciences (NCATS), 2012).
# The campaign covered roughly 340,000 compounds. About 12,000 (3.5%) were called active. The shares of active, inactive and inconclusive entries below differ from those in the screen. Calls follow the shape of the dose curve; as a rule, active = well fitted inhibition curve with a large enough effect; inconclusive = small, poorly fitted or top-dose-only effect, or another doubt; inactive = no such curve, though single readings can be large or run the other way. No potency is given beside an inconclusive call; the fits are too rough.
# Assay: qHTS Assay for Inhibitors of Hepatitis C Virus (HCV)
# Conditions: Huh7.5.1 HCVcc-Cre (HCVcc is cell-culture hepatitis C virus) infection, luciferase reporter, 44 h; series mostly up to 41.8 µM
# Outline: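 Infectious HCVcc-Cre (~0.5 moi) was added to cells just after compound, with cells seeded 4 h earlier at 1,000 per well. Luciferase activity after 44 h culture reported infection; substrate was incubated 15 min at room temperature before reading.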
# Potency is read from the fitted curve at half-maximal effect; tags tell the direction and shape of the fitted curve.
row,SMILES,Potency
1,Cc1nn(-c2ccccc2)c2c1P(=O)(O)/C(=C1\N(C)c3ccccc3C1(C)C)C=N2,"inconclusive [inhibitor, single point]"
2,CCOC(=O)/C(C#N)=N/Nc1ccc(S(=O)(=O)N2CCc3ccccc32)cc1,"inconclusive [inhibitor, full curve, poor fit]"
3,CC(C)(C)c1ccccc1NC(=O)CN1C(=O)NC2(CCCCCC2)C1=O,inactive
4,COC(=O)c1cccc(NC(=O)/C(=C\c2ccccc2)NC(=O)c2ccccc2Cl)c1,inactive
5,CC(NCC(=O)Nc1cc(S(=O)(=O)N2CCCCCC2)ccc1Cl)c1ccccc1 (stereo not drawn),active: 12.6 µM
6,O=C(Nc1cccc(-c2csc(Nc3ccc(Cl)cc3)n2)c1)c1cc([N+](=O)[O-])cc(C(F)(F)F)c1,"inconclusive [inhibitor, partial curve]"
7,CCOC(=O)C1=C(CNCc2ccccc2Cl)NC(=O)NC1c1ccc2c(c1)OCO2 (stereo not drawn),"inconclusive [inhibitor, full curve]"
8,C#CCOCCOCCOCCNc1nc(N2CCN(C(=O)CCCCCCCCCCNC(=O)[C@H]([C@@H](C)CC)n3cc(CCCCN=C(N)N)nn3)CC2)nc(N2CCN(C(=O)CCCCCCCCCCNC(=O)[C@H](CCCCN)n3cc(C)nn3)CC2)n1,"inconclusive [inhibitor, single point]"
9,O=C(CN1C(=O)NC2(CCCC2)C1=O)Nc1cc(Cl)ccc1N1CCCCC1,inactive
10,CC(C)OC(=O)c1cc2c(ccn2-c2ccc(F)cc2)n1CC(=O)N1CCN(C(=O)c2ccco2)CC1,"inconclusive [inhibitor, partial curve]"
11,C=C(c1ccccc1)c1ccc(N(C)C)cc1,inactive
12,O=C(Nc1ccc(S(=O)(=O)N2CCOCC2)cc1)c1ccc([N+](=O)[O-])s1,active: 8.91 µM
13,Cn1c(=O)[nH]c(=O)c2c1nc(Br)n2CCCSc1nc2ccccc2o1,"inconclusive [inhibitor, single point]"
14,CC1(C)COC(/C=C/c2cccc([N+](=O)[O-])c2)=N1,"inconclusive [inhibitor, single point]"
15,COc1ccc(C(c2ccc(OC)cc2)C(Cl)(Cl)Cl)cc1,"inconclusive [inhibitor, partial curve]"
16,O=c1[nH]c(C2CCCN(S(=O)(=O)c3ccccc3F)C2)nc2c1nnn2Cc1ccccc1Cl (stereo not drawn),inactive
17,CC(C)c1nc(NCCN2CCOCC2)c(C#N)c2c1COC(C)(C)C2,"inconclusive [inhibitor, single point]"
18,CCC1(C)Cc2[nH]c(=O)c(C#N)cc2CO1 (stereo not drawn),"inconclusive [inhibitor, partial curve, poor fit]"
19,CCn1c2ccccc2c2cc(/C=N/NC(=O)c3ccccc3)ccc21,"inconclusive [inhibitor, partial curve]"
20,O=C(Cc1ccc([N+](=O)[O-])cc1)Nc1ccc2c(c1)OCO2,inactive
21,Cn1c(O)c(C=NC2CC3CCC2(C)C3(C)C)c(=O)[nH]c1=O (stereo not drawn),inactive
22,Cc1ccc(S(=O)(=O)C(CCC(=O)c2ccc(Cl)cc2)C(N)=O)cc1 (stereo not drawn),inactive

row,SMILES,Potency
1,Cc1ccc(NC(=O)CC2OC(=O)c3ccccc32)cc1S(=O)(=O)N1CCCCCC1 (stereo not drawn),"inconclusive [inhibitor, partial curve]"
2,COc1ccccc1/C=C/C(=O)/C=C/c1ccccc1O,"inconclusive [inhibitor, partial curve]"
3,COc1ccc(OC)c(NC(=O)c2ccc(NC(C)=O)cc2)c1,"inconclusive [inhibitor, partial curve]"
4,CC(C)c1ccc(NC(=O)c2cc(Br)ccc2Br)cc1,"inconclusive [inhibitor, single point]"
5,COc1ccccc1C1CCN(Cc2cccc3ccccc23)CC1,active: 7.94 µM
6,NS(=O)(=O)c1ccc(CNC(=O)c2cccc(S(=O)(=O)N3CCc4ccccc43)c2)cc1,"inconclusive [inhibitor, single point]"
7,COc1ccc(CN(C(=O)CSc2nnc(-c3ccc(F)cc3)o2)c2ccc(F)cc2)cc1,"inconclusive [inhibitor, partial curve]"
8,Cc1ccc(OCCCCn2c(CO)nc3ccccc32)cc1,inactive
9,CCN=c1scc(-c2cccs2)n1/N=C/c1cc(OC)ccc1O,active: 5.01 µM
10,Clc1ccc(/C=N/Nc2nnc(-c3ncc[nH]3)c3ccccc23)cc1,"inconclusive [inhibitor, partial curve, poor fit]"
11,Cc1cc(C)nc(SCC(=O)NC2=NN=C(c3ccc(Br)cc3)CS2)n1,"inconclusive [inhibitor, single point]"
12,Cc1nn2c(-n3ccnc3)c3c(nc2c1-c1ccccc1)CCC3,"inconclusive [inhibitor, partial curve]"
13,O=C(c1cccc(S(=O)(=O)N2CCN(c3ccccc3)CC2)c1)N1CC=C(c2ccccc2)CC1,"inconclusive [inhibitor, full curve]"
14,COc1ccc(N=C2CCS(=O)(=O)c3sccc32)cc1,inactive
15,O=C1CCCCN1CCC(=O)N1CCCC(Nc2ccccc2)C1 (stereo not drawn),"inconclusive [inhibitor, single point]"
16,O=C1C(Cl)=C(Nc2ccccc2)C(=O)c2ccccc21,"inconclusive [inhibitor, partial curve]"
17,Nc1nc(Nc2ccccc2F)nc(NC2CCCCC2)c1[N+](=O)[O-],"inconclusive [inhibitor, partial curve]"
18,NC(=O)CSc1nc2cc3c(cc2c(=O)n1CCCC(=O)NCc1ccc2c(c1)OCO2)OCO3,"inconclusive [inhibitor, partial curve]"
19,COc1cc(OC)cc(C(=O)NC2CCN(CCCOc3ccccc3)CC2)c1,inactive
20,CC1CCCCC1NC(=O)CCS(=O)(=O)c1ccc(Cl)cc1 (stereo not drawn),inactive
21,COc1ccc(-c2sc(NC(C)=O)nc2-c2ccccc2)cc1,"inconclusive [inhibitor, partial curve, poor fit]"
